Data taken from PubChem BioAssay (NCATS).
Inconclusive results, whose numbers are uncertain, are shown with a selection of clear calls. For some assays here: Potencies beside an inconclusive call are fits to weak or partial responses and may not hold up. The source made the active and inactive calls. Unless noted, calls come from the whole dose curve; as a rule, active = well fitted inhibition curve with a large enough effect; inconclusive = small, poorly fitted or top-dose-only effect; inactive = no such curve, though single readings can be large or run the other way.
Tags give direction and shape of the fitted curve.

Tested on: not listed separately
Assay: NFAT Signaling Pathway (AID 444; active = well fitted curve in either direction with a large enough effect, not every such curve was filed as active; inconclusive = small, poorly fitted or top-dose-only effect, or another doubt;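 note: carbachol stimulus at about its EC50 of 1 µM final; % is set by controls: 0 for no effect and ±100 for the full control effect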)
Settings: Jurkat NFAT-bla M1, carbachol, beta-lactamase ratio, 5 h; at 17.2 µM (top of the series) unless noted
Outline: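 Jurkat cells with NFAT-driven β-lactamase reporter and co-expressed M1 receptor, stimulated with carbachol (final 1 uM, ~EC50), compound titration, 5 h at 37 °C. CCF4 loaded 1 h at RT; 460/530 nm ratio gave %activity and AC50.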
In the case of `NC(=O)CSc1nnc2n(-c3ccccc3)c(=O)c3c4c(sc3n12)CCCCC4`, the activity change, negative = inhibition is reported as inactive: -30%. In the case of `COc1ccccc1C(=O)NC(=Nc1nc2ccccc2o1)NC(=O)c1ccccc1OC`, the activity change, negative = inhibition is reported as active: -110%. With `CC1(C)Cc2c(c(N3CCOCC3)nc3sc4c(NCc5ccco5)nnnc4c23)CS1` the activity change, negative = inhibition was inconclusive: -38.6% [inhibitor]. For `C=CCn1c(SCC(=O)c2ccc(NS(=O)(=O)c3ccccc3)cc2)nnc1-c1cccs1`, the activity change, negative = inhibition was inconclusive: 36.9% [activator]. For `CN(C)c1ccc(-c2nc(-n3ccnc3)c3ccccc3n2)cc1`, the activity change, negative = inhibition was inconclusive: -39.5% [inhibitor] [at 7.69 µM]. In the case of `Cc1cc(O)c(C(C)C)cc1N=Cc1ccccc1O`, the activity change, negative = inhibition is reported as inconclusive: -80.2% [inhibitor] [at 7.69 µM]. With `O[C@@](CCN1CCCCC1)(c1ccccc1)[C@@H]1C[C@H]2C=C[C@@H]1C2` the activity change, negative = inhibition was inconclusive: -53.4% [inhibitor]. In the case of `Cc1c(C)c2cc(Cl)c(O)c(CN3CCN(C)CC3)c2oc1=O`, the activity change, negative = inhibition is reported as inconclusive: 35.6% [activator].

Biological target: 3',5'-cyclic-AMP phosphodiesterase 4B (Homo sapiens) (UniProt Q07343)
Sequence of UniProt Q07343 (Q07343 whole entry, looked up): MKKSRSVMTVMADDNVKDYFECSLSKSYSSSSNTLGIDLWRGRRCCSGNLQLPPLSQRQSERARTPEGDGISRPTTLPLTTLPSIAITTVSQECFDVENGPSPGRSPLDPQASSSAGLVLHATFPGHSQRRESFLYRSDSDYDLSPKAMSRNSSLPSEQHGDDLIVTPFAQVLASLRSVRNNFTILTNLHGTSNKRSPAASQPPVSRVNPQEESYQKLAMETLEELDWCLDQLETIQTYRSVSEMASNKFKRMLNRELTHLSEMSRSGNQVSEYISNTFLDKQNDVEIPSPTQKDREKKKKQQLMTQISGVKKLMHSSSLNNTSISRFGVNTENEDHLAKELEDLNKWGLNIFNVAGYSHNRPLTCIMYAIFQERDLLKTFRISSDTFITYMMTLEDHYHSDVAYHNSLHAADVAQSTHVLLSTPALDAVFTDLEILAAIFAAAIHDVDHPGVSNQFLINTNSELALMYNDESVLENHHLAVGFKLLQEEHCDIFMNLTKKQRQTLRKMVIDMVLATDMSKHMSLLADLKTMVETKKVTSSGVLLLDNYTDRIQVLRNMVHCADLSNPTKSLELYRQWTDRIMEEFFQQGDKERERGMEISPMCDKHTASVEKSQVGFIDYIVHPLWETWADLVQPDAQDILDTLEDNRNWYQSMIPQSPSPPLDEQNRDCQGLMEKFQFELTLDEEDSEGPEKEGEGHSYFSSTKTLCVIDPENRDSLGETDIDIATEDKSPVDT
Assay: qHTS Assay for Inhibitors of PDE-IV (AID 607; active = well fitted activation curve with a large enough effect in the main read-out, with a control signal flat, not every such curve was filed as active; inconclusive = small, poorly fitted or top-dose-only effect, or effect the other way, or a change in a side signal; note: potency is the fitted concentration of half-maximal effect)
Settings: HEK293 ACTOne CNG channel cells, membrane potential fluorescence; activation (PDE inhibition): at 22.9 µM (top of the series)
Outline: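 Live HEK293 cells with a modified cyclic nucleotide-gated (CNG) channel report intracellular cAMP via membrane-potential dye fluorescence (ex 535/em 590 nm). Endogenous PDE-IV was targeted. Compounds were tested at up to 22.9 uM final; RO 20-1724 100 uM served as control.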
With `CCNc1ncc2nc(CCc3ccccc3)c(=O)n(Cc3ccc(F)cc3)c2n1` the Potency was inconclusive: 10 µM [activator, single point]. For `COc1cccc(Nc2ncc3nc(CCc4ccccc4)c(=O)n(C)c3n2)c1`, the Potency was inconclusive: 3.16 µM [activator, partial curve]. With `COc1cccc(Nc2ncc3nc(CCc4ccccc4)c(=O)n(C4CC4)c3n2)c1` the Potency was inconclusive: 6.31 µM [activator, partial curve]. With `O[C@@](CCN1CCCCC1)(c1ccccc1)[C@@H]1C[C@H]2C=C[C@@H]1C2` the Potency was inconclusive: 12 µM [activator, partial curve].

Biological target: Cytochrome P450 2C9 (Homo sapiens) (UniProt P11712)
Sequence of UniProt P11712 (P11712 whole entry, looked up): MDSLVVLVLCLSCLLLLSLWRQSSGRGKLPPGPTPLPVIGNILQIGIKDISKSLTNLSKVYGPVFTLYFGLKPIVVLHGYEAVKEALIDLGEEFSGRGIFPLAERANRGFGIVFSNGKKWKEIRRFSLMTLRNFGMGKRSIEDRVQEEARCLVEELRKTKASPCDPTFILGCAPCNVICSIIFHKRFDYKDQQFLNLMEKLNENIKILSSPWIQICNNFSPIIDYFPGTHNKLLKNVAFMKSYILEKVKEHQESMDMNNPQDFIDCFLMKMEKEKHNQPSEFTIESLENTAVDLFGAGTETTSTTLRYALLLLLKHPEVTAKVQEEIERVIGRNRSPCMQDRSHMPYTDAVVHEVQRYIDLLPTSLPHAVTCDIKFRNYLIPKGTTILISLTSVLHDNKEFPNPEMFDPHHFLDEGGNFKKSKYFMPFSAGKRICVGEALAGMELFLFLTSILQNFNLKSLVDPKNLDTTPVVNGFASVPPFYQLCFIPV
Assay: qHTS Assay for Inhibitors and Substrates of Cytochrome P450 2C9 (AID 883); note: nearly all actives have a fitted effect of over 60% in size; note: potency is the fitted concentration of half-maximal effect; for activity change, negative = inhibition: % is set by controls: 0 for no effect and ±100 for the full control effect
Settings: recombinant CYP2C9, luciferin-H luminescence, 60 min; activity change, negative = inhibition: at 57.1 µM (top of the series)
Outline: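 Signal: luciferase luminescence reporting luciferin produced by CYP2C9. Conditions: 10nM enzyme, Luciferin-H 100uM at KM, 25mM KPO4, 37C, 60 min NADPH-driven reaction. Reference: 57uM sulphaphenazole as 100% inhibition.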
With `COc1ccc(-c2csc3c2[N+]2=CCC=C2C3=O)cc1` the Potency was inconclusive: 6.31 µM [inhibitor, single point]. In the case of `O=C1C(Cl)=C(Sc2nnc3c4ccccc4c4ccccc4c3n2)C(=O)c2ccccc21`, the Potency is reported as inconclusive: 3.98 µM [inhibitor, single point]. In the case of `CCCCCCCCCCCCCCCCCC(=O)O[C@H](CC(=O)O)C[N+](C)(C)C`, the Potency is reported as “inactive”. In the case of `C=C(C)COc1ccc2c(c1)CCC1C2CC[C@]2(C)C(=O)/C(=N/O)CC12` (stereo not given in full), the Potency is reported as inconclusive: 3.16 µM [inhibitor, single point]. In the case of `CN(C)c1ccc(-c2nc(-n3ccnc3)c3ccccc3n2)cc1`, the Potency is reported as inconclusive: 0.316 µM [inhibitor, single point].

Biological target: Cytochrome P450 3A4 (Homo sapiens) (UniProt P08684)
Sequence of UniProt P08684 (P08684 whole entry, looked up): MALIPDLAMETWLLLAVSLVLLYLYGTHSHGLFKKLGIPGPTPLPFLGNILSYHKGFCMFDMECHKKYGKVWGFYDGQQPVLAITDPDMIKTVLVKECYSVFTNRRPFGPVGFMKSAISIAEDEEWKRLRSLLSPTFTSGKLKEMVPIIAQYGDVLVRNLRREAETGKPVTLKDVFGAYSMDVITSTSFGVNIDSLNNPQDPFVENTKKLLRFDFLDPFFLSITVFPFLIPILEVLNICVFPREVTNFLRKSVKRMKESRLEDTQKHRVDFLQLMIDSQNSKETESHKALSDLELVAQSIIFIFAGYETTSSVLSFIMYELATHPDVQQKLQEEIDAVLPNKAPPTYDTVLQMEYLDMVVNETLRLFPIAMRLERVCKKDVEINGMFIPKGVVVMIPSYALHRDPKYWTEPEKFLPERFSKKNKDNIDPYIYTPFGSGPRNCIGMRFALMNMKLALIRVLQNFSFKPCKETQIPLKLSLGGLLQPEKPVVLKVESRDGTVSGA
Assay: qHTS Assay for Inhibitors and Substrates of Cytochrome P450 3A4 (AID 884); note: potency is the fitted concentration of half-maximal effect; nearly all actives have a fitted effect of over 50% in size
Settings: recombinant CYP3A4, Luciferin-PPXE luminescence; series mostly up to 57.1 µM
Outline: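 20 nM human CYP3A4 with 25 uM Luciferin-PPXE (at KM) in 200 mM KPO4, preincubated 10 min with compound; NADPH regeneration started a 60 min RT reaction. Luciferin detected by luminescence, normalized to 57 uM ketoconazole as full inhibition.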
In the case of `COc1ccc(-c2csc3c2[N+]2=CCC=C2C3=O)cc1`, the Potency is reported as inconclusive: 3.16 µM [inhibitor, partial curve]. In the case of `CNCC[C@H](Oc1ccccc1C)c1ccccc1`, the Potency is reported as inconclusive: 3.16 µM [inhibitor, partial curve]. For `O=C1C(Cl)=C(Sc2nnc3c4ccccc4c4ccccc4c3n2)C(=O)c2ccccc21`, the Potency was inconclusive: 5.01 µM [inhibitor, partial curve]. With `O=C(c1csnn1)N1CCC2(CCCN(c3ccc(-c4ccccc4)cc3)C2)CC1` the Potency was active: 7.94 µM. For `CCN(CC)CCN1c2ccccc2Sc2ccc3ccccc3c21`, the Potency was inconclusive: 3.98 µM [inhibitor, single point]. In the case of `COc1cccc(Nc2ncc3nc(-c4ccc(Cl)cc4)c(=O)n(CCC#N)c3n2)c1`, the Potency is reported as inconclusive: 2 µM [inhibitor, full curve]. With `CN(C)c1ccc(-c2nc(-n3ccnc3)c3ccccc3n2)cc1` the Potency was active: 0.631 µM.

Biological target: Cytochrome P450 2D6 (Homo sapiens) (UniProt P10635)
Sequence of UniProt P10635 (P10635 whole entry, looked up): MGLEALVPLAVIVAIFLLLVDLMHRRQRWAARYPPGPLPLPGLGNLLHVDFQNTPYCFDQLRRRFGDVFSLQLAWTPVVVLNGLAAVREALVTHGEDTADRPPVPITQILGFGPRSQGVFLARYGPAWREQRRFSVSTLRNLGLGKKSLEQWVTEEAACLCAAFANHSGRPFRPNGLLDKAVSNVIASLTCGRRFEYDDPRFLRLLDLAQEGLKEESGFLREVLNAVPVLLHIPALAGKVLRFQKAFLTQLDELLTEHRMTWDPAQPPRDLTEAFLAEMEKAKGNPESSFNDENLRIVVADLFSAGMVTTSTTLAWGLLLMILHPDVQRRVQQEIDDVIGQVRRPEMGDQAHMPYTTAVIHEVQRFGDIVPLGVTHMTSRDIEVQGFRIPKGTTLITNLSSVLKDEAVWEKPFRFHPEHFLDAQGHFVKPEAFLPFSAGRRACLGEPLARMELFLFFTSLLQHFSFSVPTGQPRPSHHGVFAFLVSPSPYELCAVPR
Assay: qHTS Assay for Inhibitors and Substrates of Cytochrome P450 2D6 (AID 891);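 note: luciferin methyl ether substrate demethylated by CYP2D6 with NADPH regeneration; potency is the fitted concentration of half-maximal effect; nearly all actives have a fitted effect of over 60% in size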
Settings: recombinant CYP2D6, luciferin-ME EGE luminescence; activity change, negative = inhibition: at 57.1 µM (top of the series)
Outline: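 Human CYP2D6 (5 nM) with 30 uM Luciferin-ME EGE (at Km) in 100 mM KPO4, compound preincubated 10 min, then NADPH regeneration system for 60 min at room temperature. Luciferin read by luminescence; normalized to 1.43 uM quinidine.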
With `O=C1C(Cl)=C(Sc2nnc3c4ccccc4c4ccccc4c3n2)C(=O)c2ccccc21` the Potency was inconclusive: 3.98 µM [inhibitor, partial curve]. With `C[C@@H](COc1ccc(/C=C\c2ccccc2)cc1)[N+](C)(C)C` the Potency was inconclusive: 3.16 µM [inhibitor, full curve, poor fit]. With `CCN(CC)CCN1c2ccccc2Sc2ccc3ccccc3c21` the Potency was active: 0.631 µM. In the case of `O=[N+]([O-])c1ccc(S(=O)(=O)Cc2ccccc2)c2nonc12`, the Potency is reported as inconclusive: 6.31 µM [inhibitor, single point]. With `Cc1cc(O)c(C(C)C)cc1N=Cc1ccccc1O` the Potency was inconclusive: 3.16 µM [inhibitor, single point].

Tested on: not listed separately
Assay: qHTS Assay for Identification of Small Molecule Antagonists for NFkB Signaling Pathway (AID 895; active = well fitted inhibition curve with a large enough effect in the signal ratio, with a control signal flat, not every such curve was filed as active; inconclusive = small, poorly fitted or top-dose-only effect, or effect the other way, or a change in a side signal; the % refers to the signal ratio; note: % is set by controls: 0 for no effect and ±100 for the full control effect)
Settings: NFkB beta-lactamase reporter cells, FRET ratio 460/530, stimulated with 10 pM TNF alpha; activity change, negative = inhibition: at 38.3 µM (top of the series)
Outline: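 ME-180 NFkB-bla cells (beta-lactamase under NFkB response element), plated overnight, treated with compound then 10 pM TNF alpha (about EC50) for 5 hrs at 37 C. LiveBLAzer FRET read at 460/530 nm emission, 405 nm excitation.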
With `O[Si@](CCCN1CCCCC1)(c1ccc(F)cc1)C1CCCCC1` the Potency was “inactive”. For `C[C@@H](COc1ccc(/C=C\c2ccccc2)cc1)[N+](C)(C)C`, the Potency was “inactive”. With `CCCCCCCCCCCCCCCCCC(=O)O[C@H](CC(=O)O)C[N+](C)(C)C` the activity change, negative = inhibition was inconclusive: 38.4%.

Biological target: Cytochrome P450 2C19 (Homo sapiens) (UniProt P33261)
Sequence of UniProt P33261 (P33261 whole entry, looked up): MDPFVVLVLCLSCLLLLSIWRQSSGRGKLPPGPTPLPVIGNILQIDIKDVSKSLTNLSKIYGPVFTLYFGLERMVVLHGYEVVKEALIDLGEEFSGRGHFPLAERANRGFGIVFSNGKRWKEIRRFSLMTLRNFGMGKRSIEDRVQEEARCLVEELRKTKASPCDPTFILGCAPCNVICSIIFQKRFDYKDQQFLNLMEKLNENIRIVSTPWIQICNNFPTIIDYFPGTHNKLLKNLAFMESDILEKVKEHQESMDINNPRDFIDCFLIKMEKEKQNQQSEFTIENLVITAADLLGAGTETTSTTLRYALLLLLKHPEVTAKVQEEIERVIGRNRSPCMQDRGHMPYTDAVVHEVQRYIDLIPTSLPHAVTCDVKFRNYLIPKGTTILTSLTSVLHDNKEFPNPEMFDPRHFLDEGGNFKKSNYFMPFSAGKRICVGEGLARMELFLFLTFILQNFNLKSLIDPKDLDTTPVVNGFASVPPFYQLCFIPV
Assay: qHTS Assay for Inhibitors and Substrates of Cytochrome P450 2C19 (AID 899); note: potency is the fitted concentration of half-maximal effect; nearly all actives have a fitted effect of over 60% in size
Settings: recombinant CYP2C19, luciferin-H EGE luminescence; series mostly up to 11.4 µM
Outline: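 Signal comes from luciferase acting on luciferin released by CYP2C19-mediated hydroxylation of Luciferin-H EGE, 10uM (KM). Assay mix: 5nM enzyme, 50mM KPO4; 60 min at 37C with NADPH regeneration. Data normalized against 57uM ketoconazole.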
With `Cc1ccc(-c2nc(-c3nccc4ccccc34)oc2-c2ccccc2)cc1` the Potency was inconclusive: 5.01 µM [inhibitor, partial curve]. For `COCCNc1ncnc2ccc(-c3cccc(OC)c3)cc12`, the Potency was inconclusive: 2.51 µM [inhibitor, partial curve, poor fit]. With `C[N+](C)([O-])CCC=C1c2ccccc2CCc2ccccc21` the Potency was active: 0.398 µM.
